PubChem BioAssay AID588342 (National Center for Advancing Translational Sciences (NCATS), 2011)
Where “and” joins values, the source holds several entries; their conditions need not be identical. Equal entries are not always repeated. Screen size: about 360,000 compounds; about 25,000 (6.9%) were called active. This list was built around the results that the source calls inconclusive (neither active nor inactive); the mix of calls is not that of the screen. The call rests on the fitted dose curve; in most records, active means well fitted inhibition curve with a large enough effect; inconclusive means small, poorly fitted or top-dose-only effect; inactive means flat fitted curve, though single readings scatter. Where the call is inconclusive, the potency comes from a doubtful curve fit.

molecular target: Luciferin 4-monooxygenase (Photinus pyralis) (UniProt P08659); experiment: qHTS profiling assay for firefly luciferase inhibitor/activator using purifed enzyme and Km concentrations of substrates (counterscreen for miR-21 project); settings: purified FLuc, luminescence inhibition; series mostly up to 57.5 µM; activity change, negative = inhibition: at the top concentration; further: nearly all actives have a fitted effect of over 55% in size;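 on activity change, negative = inhibition: plate controls were vehicle for no effect and reference inhibitor for full effect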
UniProt P08659, sequence (P08659 whole entry, looked up): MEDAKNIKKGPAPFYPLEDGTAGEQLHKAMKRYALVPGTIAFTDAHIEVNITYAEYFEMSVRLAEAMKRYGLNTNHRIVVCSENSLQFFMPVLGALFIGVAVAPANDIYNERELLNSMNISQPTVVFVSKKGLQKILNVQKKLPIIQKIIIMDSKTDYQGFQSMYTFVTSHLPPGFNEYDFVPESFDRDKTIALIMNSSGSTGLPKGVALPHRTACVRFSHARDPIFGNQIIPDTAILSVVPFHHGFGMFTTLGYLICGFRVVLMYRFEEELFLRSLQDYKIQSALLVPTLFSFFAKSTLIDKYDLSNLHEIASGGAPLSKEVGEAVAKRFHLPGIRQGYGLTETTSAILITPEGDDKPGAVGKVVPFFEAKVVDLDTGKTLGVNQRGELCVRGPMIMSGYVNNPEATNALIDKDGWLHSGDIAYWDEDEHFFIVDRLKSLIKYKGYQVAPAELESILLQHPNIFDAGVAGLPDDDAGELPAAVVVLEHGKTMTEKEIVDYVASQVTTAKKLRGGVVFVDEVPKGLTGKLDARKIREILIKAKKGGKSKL
In short: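 Biochemical qHTS of compounds, final roughly 60 µM downward over six points, against 10 nM purified firefly luciferase using Km concentrations of substrates (10 uM D-luciferin, 10 uM ATP) in Tris acetate pH 7.5 buffer; luminescence output.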
Potency means the concentration at half of the fitted maximal effect; tags describe the fitted curve by direction and shape.

| SMILES | Potency | activity change, negative = inhibition |
| --- | --- | --- |
| COCCCNC(=S)NC(=O)c1ccccc1 | inconclusive: 37.9 µM [inhibitor, partial curve, poor fit] | – |
| COc1ccc(C(=O)N2CC(=O)Nc3ccc(C)cc3C2c2ccccc2)cc1OC (centres undefined) | – | inactive: 0.738% |
| O=C(Nc1ccccc1F)c1ccc(S(=O)(=O)N2CCCCCC2)cc1 | inconclusive: 30.1 µM [inhibitor, partial curve, poor fit] | – |
| O=[N+]([O-])c1cccc2c(N3CCOCC3)ccnc12 | inconclusive: 30.1 µM [inhibitor, single point] | – |
| CC(C)(C)c1ccc(/C=N/Nc2nncn2N)cc1 | inconclusive: 21.3 µM [inhibitor, partial curve] | – |
| CCOC(=O)/C=C1\SCC(=O)N1Cc1ccc(Br)cc1 | – | inactive: 1.14% |
| COc1ccc(OCC(=O)N2CCN(C(=O)c3cc(OC)c(OC)c(OC)c3)CC2)cc1 | inconclusive: 37.9 µM [inhibitor, partial curve, poor fit] | – |
| COc1ccc(NC(=O)CN(C)C(=O)CCNC(=O)c2ccccc2OC)cc1 | – | inactive: -3.35% |
| COc1cc2c(cc1NCc1ccccn1)oc1ccccc12 | inconclusive: 15.1 µM [inhibitor, partial curve] | – |
| CCS(=O)(=O)N1Cc2ccccc2CC1C(=O)Nc1ccc(F)c(F)c1 (centres undefined) | inconclusive: 37.9 µM [inhibitor, single point] | – |
| Cc1ccc(NC(=O)CCN2C(=O)C3C4CCC(C4)C3C2=O)cc1Cl (centres undefined) | inconclusive: 37.9 µM [inhibitor, partial curve, poor fit] | – |
| CCCOc1ccc2c3c(c(=O)oc2c1OCCC)CCCC3 | inconclusive: 19 µM [inhibitor, partial curve] | – |
| CCCCOc1ccc(C(=O)NCC(=O)NC(C)CCc2ccccc2)cc1 (centres undefined) | inconclusive: 23.9 µM [inhibitor, partial curve] | – |
| O=C1/C(=C/c2cccc([N+](=O)[O-])c2)Oc2cc(O)ccc21 | inconclusive: 23.9 µM [inhibitor, partial curve] | – |
| COc1cccc(-c2ccnc3c(-c4ccc(F)cc4)c(C)nn23)c1 | active: 8.49 µM | – |
| CCN1CCN(C(=O)c2nn(-c3ccccc3)c(=O)c3ccccc23)CC1 | inconclusive: 8.49 µM [inhibitor, partial curve, poor fit] | – |
| COCCNC(=O)/C(C#N)=C/c1c(F)cccc1Cl | inconclusive: 26.9 µM [inhibitor, partial curve, poor fit] | – |
| CC1(C)CC(=O)c2cc(C(=O)Nc3ccc(Br)cc3)c(=O)[nH]c2C1 | – | inactive: -6.35% |
| Cc1ccc(-c2nc3ccccn3c2Nc2ccc3c(c2)OCCO3)s1 | inconclusive: 10.7 µM [inhibitor, partial curve] | – |
| COc1cccc(/C=C(\C#N)c2nc3ccccc3[nH]2)c1OCC(=O)O | – | inactive: -26.1% |
| COc1cccc(CNc2ccc([N+](=O)[O-])cc2Cl)c1O | inconclusive: 33.8 µM [inhibitor, single point] | – |
| O=C(Nc1ccccc1)C1C2CCCCC21 (centres undefined) | inconclusive: 23.9 µM [inhibitor, partial curve] | – |

| SMILES | Potency | activity change, negative = inhibition |
| --- | --- | --- |
| C=CCC1(CC=C)CCCN1C(=O)C1CCC(=O)N(CCc2ccc(OC)cc2)C1 (centres undefined) | active: 10.7 µM | – |
| CC(C)(C)c1ccc(C(=O)NNC(=O)c2ccncc2)cc1 | active: 19 µM | – |
| Cc1cc(C)nc(Nc2nc(-c3ccccc3)cs2)n1 | inconclusive: 0.239 µM [inhibitor, full curve, poor fit] | – |
| Cc1c(C)c2cc3c4c(oc3c(C)c2oc1=O)CCCC4 | inconclusive: 9.53 µM [inhibitor, partial curve, poor fit] | – |
| Cc1nn2c(=O)cc(COC(=O)c3cccc(NC(=O)COc4ccc(C)c(C)c4)c3)nc2s1 | inconclusive: 10.7 µM [inhibitor, partial curve] | – |
| CC1(C)NC(=O)N(CCCOc2ccc(Br)cc2Cl)C1=O | active: 10.7 µM | – |
| O=C(NCCc1c[nH]c2ccccc12)c1ccccc1 | inconclusive: 26.9 µM [inhibitor, single point] | – |
| Cc1ccc(C(=O)NCC(=O)OCC(=O)c2ccc3c(c2)NC(=O)CO3)cc1C | inconclusive: 21.3 µM [inhibitor, partial curve, poor fit] | – |
| COc1ccc(OCC(=O)Nc2nnc(-c3ccco3)s2)cc1 | inconclusive: 0.135 µM [inhibitor, full curve, poor fit] | – |
| Cc1noc(C)c1C(=O)Nc1nc(-c2ccccc2Cl)cs1 | inconclusive: 23.9 µM [inhibitor, single point] | – |
| CC(=O)CSc1nnc2c3ccccc3nc(C(C)(C)C)n12 | – | inactive: 0.197% |
| O=c1[nH]c(/C=C2\C=Nc3ccccc32)c(O)n1Cc1ccccc1F | – | inactive: -17.9% |
| CN(C)C(=O)c1ccc(NC(=O)CN2C(=O)NC3(CCCc4ccccc43)C2=O)cc1 (centres undefined) | – | inactive: -6.91% |
| C/C(=N/Nc1nc(-c2ccc(Cl)cc2)cs1)c1cccs1 | active: 15.1 µM | – |
| Cc1cccc(C(=O)Oc2ccc(/C=N/NC(=O)c3ccccc3O)cc2)c1 | active: 13.5 µM | – |
| COc1cccc(Nc2nn3c(=O)c4ccccc4nc3s2)c1 | inconclusive: 2.39 µM [inhibitor, full curve] and inconclusive: 12 µM [inhibitor, single point] | – |
| COc1ccc(N2CCN(C(=O)c3ccc4nc(N5CCCCC5)sc4c3)CC2)cc1 | inconclusive: 23.9 µM [inhibitor, partial curve, poor fit] | – |
| CC(=O)c1cccc(NCc2ccccc2-c2nnc(-c3ccccc3)o2)c1 | inconclusive: 19 µM [inhibitor, partial curve] | – |
| COc1ccc(-c2csc(NC(=O)C3CC(=O)N(Cc4ccccc4)C3)n2)cc1OC (centres undefined) | – | inactive: 8.97% |
| CCOC(=O)C(CC)Sc1ncnc2sc3c(c12)CCCC3 (centres undefined) | inconclusive: 26.9 µM [inhibitor, partial curve, poor fit] | – |
| Cc1nc2cc(NC(=O)N3CCCCC3)ccc2n1C | inconclusive: 37.9 µM [inhibitor, single point] | – |
| O=C(Nc1ccc(NC(=O)c2ccco2)nc1)c1ccco1 | active: 4.78 µM | – |
